This is an account of results in article PMC4336329 (PLoS ONE, 2015).

Molecules are shown by their SMILES. The whole screen tested about 310,000 compounds, of which about 2,200 (0.71%) showed an effect of 50% or more. The effect is printed as a negative number. This is one part of the list.

Sequence of human ether-à-go-go-related gene (hERG) potassium channel (Q12809 whole entry, looked up): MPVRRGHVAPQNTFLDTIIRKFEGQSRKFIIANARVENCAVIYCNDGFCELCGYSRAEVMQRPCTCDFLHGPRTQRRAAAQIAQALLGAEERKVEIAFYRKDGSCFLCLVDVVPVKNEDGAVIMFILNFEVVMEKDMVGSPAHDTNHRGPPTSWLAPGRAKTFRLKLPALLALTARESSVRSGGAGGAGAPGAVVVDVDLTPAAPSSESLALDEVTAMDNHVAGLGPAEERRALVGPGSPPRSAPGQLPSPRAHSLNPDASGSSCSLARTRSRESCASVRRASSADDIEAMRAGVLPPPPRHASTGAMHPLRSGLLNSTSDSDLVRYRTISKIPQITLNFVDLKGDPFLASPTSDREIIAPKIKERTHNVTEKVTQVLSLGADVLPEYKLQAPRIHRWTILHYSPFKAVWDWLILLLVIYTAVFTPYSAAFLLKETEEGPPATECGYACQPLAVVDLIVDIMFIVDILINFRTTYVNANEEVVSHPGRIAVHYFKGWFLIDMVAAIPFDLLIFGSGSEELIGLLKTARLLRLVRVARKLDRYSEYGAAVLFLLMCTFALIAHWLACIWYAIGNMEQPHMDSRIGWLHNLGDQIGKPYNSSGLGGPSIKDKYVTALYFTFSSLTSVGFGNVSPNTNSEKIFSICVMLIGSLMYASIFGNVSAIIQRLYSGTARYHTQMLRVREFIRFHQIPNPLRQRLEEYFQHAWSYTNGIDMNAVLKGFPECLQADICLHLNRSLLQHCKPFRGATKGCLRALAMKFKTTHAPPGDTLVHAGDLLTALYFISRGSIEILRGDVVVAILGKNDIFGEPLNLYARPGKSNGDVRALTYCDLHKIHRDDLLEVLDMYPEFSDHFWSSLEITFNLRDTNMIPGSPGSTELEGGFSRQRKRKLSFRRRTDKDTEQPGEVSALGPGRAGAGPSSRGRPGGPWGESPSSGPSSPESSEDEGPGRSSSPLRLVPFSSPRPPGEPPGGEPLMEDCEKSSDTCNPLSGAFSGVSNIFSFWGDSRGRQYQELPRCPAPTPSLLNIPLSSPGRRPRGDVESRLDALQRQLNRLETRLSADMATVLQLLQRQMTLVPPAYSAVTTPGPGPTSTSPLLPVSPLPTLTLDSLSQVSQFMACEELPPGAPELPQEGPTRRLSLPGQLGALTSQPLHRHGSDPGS

This assay addresses human ether-à-go-go-related gene (hERG) potassium channel (human, UniProt Q12809). As to the kind of experiment: primary screen, population patch clamp on CHO cells stably expressing hERG.
`CC1CCC2C(C1)c1sc(=O)[nH]c1SC2(C)C` (centres unmarked): the “hERG current change (%, negative = inhibition) at 1uM” value is reported as 10.6%.
As for `CCOC(=O)Cn1c(CN2CCOCC2)nc2c1c(=O)[nH]c(=O)n2C`, the “hERG current change (%, negative = inhibition) at 1uM” value is reported as 10.5%.
As to `COc1ccccc1N1CCN(C(=O)c2cc3c(-c4ccc(Cl)cc4)nn(C)c3s2)CC1`, the “hERG current change (%, negative = inhibition) at 1uM” value came to 2.69%.
In the case of `CSCC[C@H](NS(=O)(=O)c1ccc(C)cc1)C(=O)N1CCC(C(=O)N[C@@H](C)C(=O)O)CC1`, the “hERG current change (%, negative = inhibition) at 1uM” value was determined as 6.46%.
As for `COc1ccccc1C1C=C(c2ccc(C)cc2)Nc2nnnn21` (centres unmarked), the “hERG current change (%, negative = inhibition) at 1uM” value stood at 7.55%.
In the case of `O=C(O)c1cccc(NC(=O)c2cn(-c3ccccc3)nc2-c2ccncc2)c1`, the “hERG current change (%, negative = inhibition) at 1uM” value is 21.1%.
With `COC(=O)c1c(NC(=O)CN2CCOCC2)sc2c1CCC(C)C2` (centres unmarked), the “hERG current change (%, negative = inhibition) at 1uM” value is given as 5.22%.
In the case of `COc1cccc(NC(=O)C(c2ccccc2)N2CCNC(=O)C2)c1` (centres unmarked), the “hERG current change (%, negative = inhibition) at 1uM” value is reported as 5.07%.
Turning to `COc1ccc(CC(=O)Nc2cc(S(=O)(=O)N3CCCCC3)ccc2N2CCN(C)CC2)cc1`, the “hERG current change (%, negative = inhibition) at 1uM” value is on record as -7.26%.
`Cc1ccc(N(C)S(=O)(=O)c2ccc(-c3ccc(=O)[nH]n3)s2)cc1C`: the “hERG current change (%, negative = inhibition) at 1uM” value worked out at 6.6%.
For the compound `CC(C)c1ccc2nc(N)sc2c1`, the “hERG current change (%, negative = inhibition) at 1uM” value is 4.39%.
Consider `O=C(c1n[nH]c2ccccc12)N1CCN(S(=O)(=O)c2ccc3ccccc3c2)CC1`, for which the “hERG current change (%, negative = inhibition) at 1uM” value is -0.17%.
For the compound `COc1ccc2c(c1)CCc1c(C(=O)NCC(C)C)noc1-2`, the “hERG current change (%, negative = inhibition) at 1uM” value is on record as 27.2%.
With `NC(=O)Nc1ccc(C(=O)OCC(=O)Nc2cccc(S(=O)(=O)NC3=NCCC3)c2)cc1`, the “hERG current change (%, negative = inhibition) at 1uM” value is 14.4%.
For `O=C(NCCCN1CCCC1=O)c1cccc(S(=O)(=O)N2CCN(c3ccc(F)cc3)CC2)c1`, the “hERG current change (%, negative = inhibition) at 1uM” value turned out to be 9.13%.
`CCOc1cc(/C=N/NC(=O)c2nnn(-c3nonc3N)c2C)ccc1OCc1ccc(F)cc1`: the “hERG current change (%, negative = inhibition) at 1uM” value is given as 13.3%.
For `COc1ccc(C(=O)c2sc3nc(-c4ccccc4)ccc3c2N)cc1`, the “hERG current change (%, negative = inhibition) at 1uM” value is on record as 19.7%.
With `Oc1cccc(Nc2nc(N3CCOCC3)nc(N3CCOCC3)n2)c1`, the “hERG current change (%, negative = inhibition) at 1uM” value was 12.2%.
`CCOc1ccc2[nH]c(=O)c(CN(Cc3cccs3)Cc3nnnn3C(C)(C)C)cc2c1`: the “hERG current change (%, negative = inhibition) at 1uM” value is reported as 9.72%.
For `O=C1c2cc(S(=O)(=O)NCCCO)ccc2-c2ccc(S(=O)(=O)NCCCO)cc21` the value was 6.11%; for `O=C(CSc1nnc(Cc2cc(=O)[nH]c(=O)[nH]2)n1-c1ccccc1)NCC1CCCO1` (centres unmarked), 1.91%.
`CC(/C=C/c1ccc(O)cc1)=N/O`: the “hERG current change (%, negative = inhibition) at 1uM” value is listed as 12.9%.
As to `CC(C)(C)C(=O)Nc1c2c(nn1-c1ccc(F)cc1)CSC2`, the “hERG current change (%, negative = inhibition) at 1uM” value is listed as 12.4%.
